The record followed here is ChEMBL document CHEMBL4888484, “Replenishing the malaria drug discovery pipeline: Screening and hit evaluation of the MMV Hit Generation Library 1 (HGL1) against asexual blood stage Plasmodium falciparum ,using a nano luciferase reporter read-out” (2022).

In all, about 150,000 compounds went through this assay and about 540 (0.36%) showed an effect of 50% or more. This is one part of the list.

This assay deals with Plasmodium falciparum. Put plainly: Primary screen in NF54 nanoGlo assay, in single point, at 2uM, 72h; a lower Z score goes with more inhibition. The format is functional, Erythrocyte. Particulars: timepoint 72 hour.
`CC1CCC(C(=O)N2CCC(OCc3ccc(F)cc3)CC2)O1` (stereo not drawn): the “% Inhibition” value turned out to be 1% and the Z score is given as -0.22.
For `O=C(CNC(=O)c1ccc(F)cc1F)Nc1nc2cc3c(cc2s1)OCCO3` the same measures were -22% and 1.89.
With `CC(C)Cc1cnc(NC(=O)NCCN(C)C)s1`, the “% Inhibition” value is -9% and the Z score was 1.61.
For the compound `Cc1cc(C(=O)N[C@@H](CO)c2ccnn2C)nn1C(F)F`, the “% Inhibition” value is -4% and the Z score came out at 0.48.
Take `O=C(CCc1ccccc1)N1CC(N2C(=O)COC2=O)C1`: the “% Inhibition” value was -6% and the Z score turned out to be 0.66.
For `Cc1nc(C)c(C(=O)Nc2cccc3c2CCN3S(C)(=O)=O)o1`, the “% Inhibition” value is given as -8% and the Z score is 1.02.
Consider `CC(Nc1ccn(-c2ccccc2)n1)C1CCOC1` (stereo not drawn), for which the “% Inhibition” value is recorded as -15% and the Z score was found to be 1.29.
Take `Cc1ccc(-c2noc([C@@H]3COCCO3)n2)c(F)c1`: the “% Inhibition” value was 1% and the Z score was -0.29.
Regarding `CCn1cnnc1CNC(=O)Nc1ccc(COC2CCCC2)cc1`, the “% Inhibition” value was -16% and the Z score came out at 1.98.
In the same order, the values of `CCN(CC)c1cc(C)nc2nc(CN3CCN(c4ccccc4F)CC3)nn12` are -15% and 1.96.
Take `Cc1scc(C(=O)Nc2nccs2)c1C`: the “% Inhibition” value is on record as -11% and the Z score worked out at 1.04.
Regarding `CCS(=O)(=O)N[C@@H](C)c1ccc(OCC2CC2)c(F)c1`, the “% Inhibition” value is -4% and the Z score was 0.62.
`O=C(c1ccccc1O)N1N=C(C2CCCCC2)C[C@]1(O)C(F)(F)F`: the “% Inhibition” value was -7% and the Z score turned out to be 1.28.
Take `COc1ccccc1C(=O)N1CCC2(CC1)C(=O)N(CC(=O)NCc1ccccc1)CN2c1ccccc1`: the “% Inhibition” value was 8% and the Z score was -0.76.
As to `CN1CCC(NC2(c3cccc(F)c3)CC2)CC1`, the “% Inhibition” value was -6% and the Z score worked out at 0.72.
Consider `O=C(Nc1ccc(F)cc1F)N1CCC[C@H]1c1cccs1`, for which the “% Inhibition” value is recorded as -8% and the Z score is reported as 1.58.
On to `N#Cc1ccc(C(=O)Nc2cccc(C(=O)N3CCC[C@H]3C(=O)NC3CCCC3)c2)cc1`, for which the “% Inhibition” value turned out to be 10% and the Z score is listed as -1.11.
Take `O=C(COc1ccccc1)Nc1ccc(C(=O)NC[C@H]2COc3ccccc3O2)cc1`: the “% Inhibition” value is recorded as -15% and the Z score is on record as 2.
`CC(C)(C)OC(=O)N[C@H]1CCN(Cc2ccc(F)cc2C#N)C1`: the “% Inhibition” value is 1% and the Z score is on record as -0.25.
For `Cc1cc(=O)[nH]c(N2CCC(NC(=O)c3c(C)n[nH]c3C)CC2)n1`, the “% Inhibition” value was -5% and the Z score came to 0.83.
As to `COc1cccc(CNC2=NCCNC23CCN(S(=O)(=O)c2c(C)cc(C)cc2C)CC3)c1`, the “% Inhibition” value stood at 10% and the Z score is on record as -1.24.
As to `CCc1sc2nc(-c3ccccc3)cn2c1-c1ccc(Br)cc1`, the “% Inhibition” value is recorded as -10% and the Z score turned out to be 1.34.
For `CCn1ccnc(Oc2cnc3ccccc3c2)c1=O`, the “% Inhibition” value is given as -13% and the Z score was found to be 1.8.
For `O=C([C@@H]1CCCO1)N1CCCc2cccc(Cl)c21` the same measures were 14% and -1.53.

For orientation: % Inhibition means the change of the read-out against control, counted positive when it falls.
